# About 2,200 (0.71%) of roughly 310,000 compounds showed an effect of 50% or more. Effects have a minus sign here. Some of the results follow.
# Biological target: human ether-à-go-go-related gene (hERG) potassium channel (human, UniProt Q12809)
# Test: primary screen, population patch clamp on CHO cells stably expressing hERG
# human ether-à-go-go-related gene (hERG) potassium channel, sequence (Q12809 whole entry, looked up): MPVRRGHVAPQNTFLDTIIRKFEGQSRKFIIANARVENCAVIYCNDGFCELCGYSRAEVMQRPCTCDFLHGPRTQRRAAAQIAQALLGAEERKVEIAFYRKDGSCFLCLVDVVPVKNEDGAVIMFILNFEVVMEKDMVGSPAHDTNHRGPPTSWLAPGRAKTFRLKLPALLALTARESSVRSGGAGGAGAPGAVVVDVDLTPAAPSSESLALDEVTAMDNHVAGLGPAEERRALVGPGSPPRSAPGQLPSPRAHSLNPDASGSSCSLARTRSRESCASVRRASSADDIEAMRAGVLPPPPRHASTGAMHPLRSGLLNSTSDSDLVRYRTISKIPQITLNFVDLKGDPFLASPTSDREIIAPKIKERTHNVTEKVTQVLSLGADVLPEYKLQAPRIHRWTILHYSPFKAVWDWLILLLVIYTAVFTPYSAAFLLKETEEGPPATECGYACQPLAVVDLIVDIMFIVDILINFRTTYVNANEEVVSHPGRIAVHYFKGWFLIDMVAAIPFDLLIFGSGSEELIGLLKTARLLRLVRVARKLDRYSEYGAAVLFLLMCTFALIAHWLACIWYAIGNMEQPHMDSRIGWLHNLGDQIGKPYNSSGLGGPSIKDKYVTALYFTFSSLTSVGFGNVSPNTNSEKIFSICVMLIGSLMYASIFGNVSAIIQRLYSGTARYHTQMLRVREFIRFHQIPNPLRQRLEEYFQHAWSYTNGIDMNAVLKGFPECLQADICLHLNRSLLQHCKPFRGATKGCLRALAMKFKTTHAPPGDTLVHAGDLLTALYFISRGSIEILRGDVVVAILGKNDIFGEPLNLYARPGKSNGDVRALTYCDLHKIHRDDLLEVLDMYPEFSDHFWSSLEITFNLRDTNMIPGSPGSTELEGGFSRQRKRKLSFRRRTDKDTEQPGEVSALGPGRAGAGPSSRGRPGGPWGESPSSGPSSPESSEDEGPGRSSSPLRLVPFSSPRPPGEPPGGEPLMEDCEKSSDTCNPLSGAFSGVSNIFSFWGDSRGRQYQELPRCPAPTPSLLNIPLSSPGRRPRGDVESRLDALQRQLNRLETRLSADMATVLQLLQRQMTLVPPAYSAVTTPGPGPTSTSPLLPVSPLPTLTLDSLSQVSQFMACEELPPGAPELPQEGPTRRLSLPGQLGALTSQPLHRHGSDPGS
row,SMILES,"hERG current change (%, negative = inhibition) at 1uM [%]"
1,CCOC(=O)c1cccc(NC2c3ccccc3C(=O)N2Cc2ccco2)c1 (stereo not drawn),17.9
2,COc1ccc(-c2cc(C(F)(F)F)n3ncc(C(=O)NCc4ccco4)c3n2)cc1,7.09
3,Nc1ccc(S(=O)(=O)c2ccc(N)c(N)c2)cc1,15.8
4,Cc1nn(C)cc1C(C(=O)NC1CCCCC1)N(C(=O)Cn1nnc2ccccc21)c1ccc(F)cc1 (stereo not drawn),-2.79
5,CC(C)c1cccc(C(C)C)c1NC(=O)CN(C)C1CCS(=O)(=O)C1 (stereo not drawn),-6.21
6,Nc1ccc(-c2ccc(N)cc2C(F)(F)F)c(C(F)(F)F)c1,-1.33
7,CC/C(=N\NC(=O)COc1ccc(Br)cc1)c1ccc(OC)c(OC)c1,13.5
8,O=c1c2ccccc2n(Cc2cccc(F)c2)c(=O)n1C1CCCC1,5.44
9,Cc1cccc(N(CC(=O)NC2CCCC2)C(=O)CS(=O)CC(=O)Nc2ccc3c(c2)OCO3)c1C (stereo not drawn),14.8
10,CCC(NC(=O)CN1CCN(C(=O)c2cccs2)CC1)c1ccc(C)cc1 (stereo not drawn),-3.24
11,COc1cc(C(=O)NC(=S)N2C[C@H]3C[C@H](C2)c2cccc(=O)n2C3)cc(OC)c1OC,3.29
12,CCCN1C2CCCC1CC(NC(=O)c1ccc(F)cc1)C2 (stereo not drawn),-29.7
13,COc1ccc2nc(C)cc(N/N=C/c3ccc(F)cc3)c2c1,6.3
14,Cc1cc(NCc2ccccn2)n2ncc(-c3ccc(Cl)cc3)c2n1,12.2
15,CCOc1ccc(C(=O)N[C@H](C(=O)Nc2cccc(S(=O)(=O)N3CCCCC3)c2)C(C)C)cc1,7.45
16,O=C(O)CN1CCN(CC(=O)O)CCN(CC(=O)O)CCN(CC(=O)O)CC1,9.32
17,Cl.c1ccc(C(OCCN2CCNCC2)c2ccccc2)cc1,4.05
18,OC(COCC1CC=CCC1)Cn1cnc2ccccc21 (stereo not drawn),3.82
19,Cc1cc(OCCCCOc2ccc(S(N)(=O)=O)c(C)c2)ccc1S(N)(=O)=O,12.7
20,CN(C)CCCN(C(=O)COc1ccc(Cl)cc1)c1nc2c(F)cccc2s1.Cl,-16.9
21,Cc1cc(Br)ccc1SCC(=O)OCC(=O)NC1CC1,14
22,O=c1cc(-c2ccccc2)n(S(=O)(=O)c2ccccc2)o1,11.1
23,COC(=O)CCCC(=O)N1CCC(CO)(CCc2ccccc2)CC1,-0.837
24,O=C(Nc1c2c(nn1-c1ccc(F)cc1)CS(=O)C2)c1ccc(S(=O)(=O)N2CCOCC2)cc1 (stereo not drawn),11.7
25,CC(=O)Nc1ccc(/C=N/NS(=O)(=O)c2cc(C)ccc2C)cc1,-16.3
26,Cc1noc(C)c1S(=O)(=O)NCC(=O)O,14.3
27,COc1cc(C(=O)Nc2cnc(NC(=O)C(C)C)cc2C)cc(OC)c1OC,17.7

row,SMILES,"hERG current change (%, negative = inhibition) at 1uM [%]"
1,Cc1cc(NC(=O)COC(=O)[C@@H](NS(=O)(=O)c2ccccc2)C(C)C)no1,8.91
2,Cc1cscc1NC(=O)/C=C/C(=O)O,5.26
3,O=C(N/N=C/c1ccco1)C1CC1(c1ccccc1)c1ccccc1 (stereo not drawn),2.04
4,CCCCCOc1ccc(C(=O)NC(CCC)C(=O)O)cc1 (stereo not drawn),-0.623
5,CNC(=O)c1ccccc1NC(=O)C1CC(=O)N(C(C)C)C1 (stereo not drawn),10.8
6,COc1ccc(C(=O)Nc2nc(C)cc(C)n2)cc1[N+](=O)[O-],8.54
7,COc1cc(NC(=O)CN(C)Cc2ccc(OC(F)F)cc2)c(C)cc1[N+](=O)[O-],0.819
8,Cc1cc(NC(=O)COc2coc(CN3CCN(c4ccc(F)cc4)CC3)cc2=O)no1,-7.93
9,CC1(C)CCC(=O)N2CC[C@H]3C[C@H](OC(=O)Nc4ccc5c(c4)OCO5)C[C@@H]1[C@H]32,11.1
10,COCCn1c(NCc2ccc(C)cc2)nc2c1c(=O)[nH]c(=O)n2C,6.56
11,c1ccc(C(c2ccccn2)c2ccccn2)cc1,5.64
12,O=C(COC(=O)c1cc([N+](=O)[O-])ccc1NCc1ccccc1)NCc1ccccc1Cl,14.2
13,Cc1cc(N2CCN(c3ccc(C(F)(F)F)cc3[N+](=O)[O-])CC2)c2ccccc2n1,-64.2
14,O=C(/C=C/c1ccc([N+](=O)[O-])cc1)NCc1cccs1,12.3
15,CSc1ccc(CCNS(=O)(=O)c2c(C)[nH]c(C)c2C(=O)N2CCCCC2)cc1,4.35
16,O=C(OCC(=O)N1CCCC1=O)c1ccc(O)cc1O,10.2
17,COc1ccc(OC)c(N=C(C)C2=C(O)COC2=O)c1,-4.71
18,NC(=O)c1ccccc1OCC(=O)NS(=O)(=O)c1ccccc1,10
19,COc1cccc(N2CC(=O)N(NC(=O)c3sc4nc(C)cc(C)c4c3N)CC2=O)c1,10.7
20,CC(C)(C)NC(=S)NCc1ccc2c(c1)OCO2,8.13
21,COc1ccc(S(=O)(=O)N2CCN(C(=O)CN3C(=O)NC(C)(C)C3=O)CC2)cc1,14
22,CCOC(=O)N1CCC(NC(=O)c2cc(C(=O)Nc3cccc(OC)c3)ccc2CO)CC1,14
23,O=C(COc1ccc2c(c1)oc(=O)c1ccccc12)NC(Cc1ccc(Cl)cc1)C(=O)O (stereo not drawn),5.37
24,Nc1nonc1-n1nnc(C(=O)N/N=C/c2ccc(O)cc2)c1COc1ccc(F)cc1,19.1
25,O=C(CCNS(=O)(=O)c1cccc2nsnc12)NCc1ccco1,7.54
26,COC(=O)Nc1ccc(S(=O)(=O)N2CCCC(C(=O)N3CCN(C)CC3)C2)cc1 (stereo not drawn),7.31
27,Cc1ccc(O)c(NC(=O)c2noc(C(C)C)c2[N+](=O)[O-])c1,10.7
